# Data from ChEMBL document CHEMBL4888484, “Replenishing the malaria drug discovery pipeline: Screening and hit evaluation of the MMV Hit Generation Library 1 (HGL1) against asexual blood stage Plasmodium falciparum ,using a nano luciferase reporter read-out” (2022).
# In all, about 150,000 compounds went through this assay and about 540 (0.36%) showed an effect of 50% or more. Some of the results follow.
# System: Plasmodium falciparum
# Assay: Primary screen in NF54 nanoGlo assay, in single point, at 2uM, 72h; a lower Z score goes with more inhibition
# Format: functional, Erythrocyte
# Conditions: timepoint 72 hour
Structure (SMILES),% Inhibition,Z score
Cn1nc(C(=O)N2[C@H]3CCNC[C@@H]2CC3)cc1C(F)(F)F,-14%,2.78
O=C(Cc1cccc(Cl)c1)NC[C@@]12CNC[C@]1(C(F)(F)F)C2,-4%,0.55
Cc1noc(CNC(=O)c2ccc(Br)o2)n1,-18%,2.62
COc1ccccc1-n1c(=O)n(Cc2cccc(F)c2)c(=O)c2c(C(=O)N3CCCC3)cc(C)nc21,-3%,0.35
CN(C)C(=O)C1CCN(Cc2coc3ccccc23)CC1,-9%,1.42
CC1CCCC(C)N(C(=O)c2cc3c(ccc4ccccc43)[nH]2)C1 (stereo not given),6%,-0.97
Cc1noc(C)c1CN(C)C(=O)NCCn1cncn1,-14%,2.08
Cc1c(C)c2c(c(C)c1O)CC[C@@](C)(C(=O)N(CCO)Cc1ccc(F)cc1)O2,-7%,1.37
OCCOc1cccc(CN(Cc2cccnc2)C[C@H]2CCCN(C3CCCCC3)C2)c1,10%,-1.33
O=C(NCCc1c[nH]c2ccccc12)C1CC2CCC1C2 (stereo not given),-6%,0.61
CNC/C=C/COc1ccc(C(C)C)cc1,-7%,0.73
COc1ccc(C2CC(=O)N(Cc3ccccc3Cl)C(=O)C2)cc1OC,-5%,0.64
Cc1sc(C(=O)O)cc1CN1CCC[C@H](c2nc(C(C)C)cs2)C1,-8%,1.27
Cc1ccsc1CN(C(=O)c1cccc[n+]1[O-])C(C)C,39%,-5.57
CC(C)(C)OC(=O)Nc1ccccc1O,-10%,1.4
O[C@H](COc1ccc2cc(Br)ccc2c1)CN1CCN(c2ccccn2)CC1,2%,-0.44
Clc1ccc(N2CCN(c3cc(-n4ccnc4)ncn3)CC2)cc1,8%,-1.07
CC(C)c1nnc([C@@H]2CCCN2C(=O)NCc2ccco2)[nH]1,-9%,1.11
Cc1cc(NC(=O)N2CC(C)(C)[C@@H]3CCC[C@@H]32)c(=O)n(C)c1,-10%,2.05
CN(C)C(=O)N1CCC(c2nc([C@@H]3CN(Cc4ccccc4)CCO3)no2)CC1,3%,-0.33
Cc1cccc(OCCCNC(=O)CO)c1C,-2%,0.26
Fc1ccc(OCCOCCN2CCNCC2)cc1,-27%,3.11

Structure (SMILES),% Inhibition,Z score
CC1=C(C)C[C@@](C#N)(C(F)(F)F)[C@](C#N)(C(F)(F)F)C1,-4%,0.52
COC[C@H]1CCCN1Cc1nc(C2(O)CCN(CC3CCCCC3)CC2)cs1,1%,-0.09
CCCN(CC(=O)N1CCn2cccc2[C@H]1c1cccc(F)c1)C(=O)c1ccc(Cl)cc1,-10%,1.64
O=C(c1cc2c(ccc3ccccc32)[nH]1)N1CCC2(CCNCC2)CC1,4%,-0.81
CCCc1cnc(NCc2cncs2)s1,-8%,1.17
Cc1cc(C(=O)N[C@@H](CC(F)(F)F)c2ccc(Cl)cc2)n(C)n1,-8%,1.55
COC(=O)c1ncccc1OCc1cc(C)no1,9%,-1.63
NC(=O)C1(NC(=O)CN2CCN(Cc3ccccc3)CC2)CCOCC1,-9%,1.62
COC(=O)C1CCC(NC(=O)NCC(F)F)C1 (stereo not given),-4%,0.65
CC(C)CN1CCN(c2nccn(C3CC3)c2=O)CC1=O,7%,-0.93
COc1ccc(CN2C(=O)N[C@@H](CC(=O)Nc3ccc(OC)cc3OC)C2=O)cc1,-3%,0.5
CCOC[C@H]1CCN(C(=O)C2(O)CN(C(=O)OC(C)(C)C)C2)C1,-4%,0.81
COc1ccc(CNC(=O)N(CCN2CCCC2)Cc2ccc(Cl)cc2)cc1OC,-6%,0.65
Cn1nc(C(=O)Nc2ccncc2)cc1C(=O)Nc1ccncc1,32%,-3.61
Cc1ccc(C(=O)N2CCC[C@@]3(CCC(=O)N(CCN(C)C)C3)C2)cc1O,-2%,0.27
O=C(O)C[C@@H]1CCN(C(=O)Cc2ccccc2)C[C@@H]1CCN1CCN(c2ccccc2)CC1,-11%,1.77
Cc1cccc(OCc2nc(CN(CCN3CCOCC3)C(=O)c3ccccc3F)cs2)c1,-3%,0.5
CC(C)N1CCC[C@H]1c1nc(-c2ccc(N(C)C)nc2)no1,-5%,0.6
N#Cc1ccc(CN2C(=O)NC(C3CC3)(C3CC3)C2=O)cc1,-8%,0.75
CCCCN(CCCC)C(=O)[C@H]1CCCS(=O)(=O)C1,0%,-0.03
CO[C@H]1C[C@H]2CC[C@@H](C1)N2C(=O)c1oc(C)nc1C,-4%,0.73
Cn1c(C(=O)N[C@H]2CCCNC2=O)cc2ccc(Cl)cc21,0%,-0.02

Structure (SMILES),% Inhibition,Z score
CC(C(=O)N1CCOCC1C#N)c1cccs1 (stereo not given),-9%,1.42
Cc1cc2c(cc1-c1c(-c3ccccc3)ncn1[C@H](C)C(N)=O)OCO2,11%,-1.29
O=S(=O)(c1cccc(Br)c1)N1CCN(CN2CCOC2=S)CC1,-13%,1.49
Cc1nnc(-c2cccc(NC(=O)[C@@H]3CCCCN3C(=O)C3=CCCCC3)c2)s1,7%,-0.85
N[C@H](C(=O)NCC(F)(F)F)C1CCC1,-5%,0.58
O=C(N[C@H]1CN[C@H](C(=O)NCc2noc(-c3ccco3)n2)C1)c1ccc(F)cc1,-5%,0.88
CO/C(=N/C(=O)c1cccc(OC)c1)NCCc1ccc(OC)c(OC)c1,2%,-0.36
CC(C)(C)C(=O)N1CC(N2CCc3ccccc3C2)C1,0%,0.02
CN(CCn1cccn1)c1cc(C#N)c2ccccc2n1,-9%,1.39
COc1ccc(CN2CCC3(CC2)C[C@@H]3C(=O)Nc2cccc(F)c2)cc1C,2%,-0.25
COCCn1cc(NC(=O)N(C)C2CCCCCC2)cn1,-6%,0.83
COc1cccc2c(N3CCC(n4ccnn4)CC3)nccc12,-18%,1.92
O=S(=O)(Nc1nnc(C2CC2)o1)c1cccc(F)c1F,-1%,0.11
O=C(Cc1nnc(-c2ccccc2)o1)N1CCCCCC1,-7%,0.9
CCS(=O)(=O)c1ccc(Cl)cc1C(=O)N[C@@H](C)c1cc(C)sc1C,9%,-1.39
C[C@@H]1Oc2ccc(NS(=O)(=O)c3ccc(F)cc3)cc2CN(Cc2cc(F)cc(F)c2)C1=O,11%,-1.29
Clc1ccc(/C2=N/CCCCCN2)cc1,2%,-0.2
Cc1nc[nH]c1CN1C[C@H]2CC[C@@H](C1)N(Cc1ccc(C(C)C)cc1)C2,1%,-0.15
CC1(C)COc2c(C(=O)N3CCCN(C(N)=O)CC3)cccc21,-6%,1.2
CC(C)[C@@H](C(=O)OCc1nncn1C)N(C)C,-15%,1.8
CC(C)(C(=O)N[C@H]1CCc2ccccc21)S(=O)(=O)C1CC1,-4%,0.71
O=C(Nc1ccc(F)cc1)Nc1ccc(-c2cc3cc(F)ccc3[nH]2)cc1,-5%,0.72

Structure (SMILES),% Inhibition,Z score
CN1C[C@H]2CC[C@@H](C1)N(C(=O)c1ccccc1N(C)C)C2,-1%,0.22
Cn1nc(CCC(=O)N2CCCC2)c2c1CCN(C(=O)C1CCCC1)C2,-2%,0.36
CCC1CN(C(=O)NCc2ccc(C)nc2)CC(C)O1 (stereo not given),2%,-0.28
COc1ccc(S(=O)(=O)Oc2ccccc2CN(Cc2ccc(F)cc2)C(=O)CC(C)C)cc1,-9%,1.28
Cc1nnc([C@@]23COC[C@@H]2CN(Cc2ccccc2OC(C)C)C3)o1,-15%,2.39
COC(=O)[C@H]1CCc2nnc(Cc3ccccc3F)n2CC1,-11%,1.71
CCc1cc(=O)c2ccccc2n1C[C@H](O)COC(C)C,-16%,2.1
COC[C@H](NC(=O)Nc1c(C)cccc1Cl)c1ccnn1C,2%,-0.29
CC(=O)NCc1ccc(C(=O)N[C@H]2CC[C@H](C)CC2)s1,-12%,1.17
Cc1cc(CCNC(=O)c2cccc(Cl)c2)nn1C,-8%,1.53
COc1ccnc(N2CCC3(CC2)NC(=O)N(C)C3=O)n1,-11%,1.48
CS(=O)(=O)N[C@@H]1CC[C@H]2CCOc3ccccc3C(=O)N3CCN(CC4CCCCC4)C[C@H]3C(=O)NC[C@H]1O2,13%,-1.51
Cc1nc(-c2cccs2)sc1C(=O)NC1CCCCC1,-13%,1.81
O=C(CN(Cc1ccsc1)C[C@H]1CCCO1)Nc1ccc(Cl)cn1,-8%,0.84
O=C(NCCCCN1CCOCC1)c1ccccc1O,-15%,1.55
CC(C)NC(=O)N1CC=C(c2cn(C(C)C)c3ncccc23)CC1,6%,-1.1
CC1CCN(C(=O)c2ccc(NC[C@H](O)c3ccco3)nc2)CC1,3%,-0.29
CC1CC2CCCCC2N1C(=O)Nc1cc(C(=O)N(C)C)ccn1 (stereo not given),-11%,0.96
Cc1ccc(N(C)C(=O)C2CCCN(S(=O)(=O)c3cc4c(cc3C)NC(=O)C(C)O4)C2)cc1 (stereo not given),1%,-0.22
